Source: PubChem BioAssay (NCATS)
Several values for one entry are separate records, joined by “and”; a condition that tells them apart may be missing. Equal entries are not always repeated. For part of these data: “Side channel” marks fits to a control or component signal instead of the main read-out. Activity calls are given as the source filed them. Unless noted, calls follow the shape of the dose curve; as a rule, active = well fitted curve in the direction sought with a large enough effect; inconclusive = small, poorly fitted or top-dose-only effect, or another doubt; inactive = no such curve, though single readings can be large; an effect the other way counts as inactive or inconclusive.

Experiments:
[1] = Cell Viability - Hek293 (AID 427;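 active = compounds whose dose-response curve shows a full or clear partial loss of cell viability, called from curve shape rather than a numeric limit; inconclusive = weak partial curves or an effect only at the top dose; inactive = no dose-dependent loss of viability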;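 also: potency is read from the fitted curve at half-maximal effect; cells exposed to compound for 40 hours at 37 °C before reading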); conditions: qHTS
Outline: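 AC50 values derive from Hill-modelled concentration-response of ATP-based luminescence, normalized between DMSO-only and 100 uM tamoxifen controls. Cells were exposed in complete culture medium for 40 hr at 37 °C before detection.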

[2] = MultiTox-Fluor Cytotoxicity Assay - LYMP1-001 - Live Cells (AID 947); conditions: LYMP1-001 lymphoblastoid cells, live-cell protease fluorescence viability; series mostly up to 92.2 µM; also: potency is read from the fitted curve at half-maximal effect
[3] = Cell Viability - LYMP2-005 (AID 967); conditions: LYMP2-005 lymphoblastoid cell viability; series mostly up to 92.2 µM; also: potency is read from the fitted curve at half-maximal effect
Outline: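 Luciferase-based ATP quantitation served as the viability measure in human lymphoblastoid LYMP2-005 cells exposed to test compounds for 24 h at 37 C in complete culture medium. Potency (AC50) was obtained by fitting concentration-response curves with the Hill equation.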

[4] = target: Estrogen receptor (Homo sapiens) (UniProt P03372); assay: qHTS assay for small molecule antagonists of estrogen receptor alpha signaling (AID 588513; active = well fitted curve in the direction sought with a large enough effect in the signal ratio, with a control signal flat, not every such curve was filed as active; inconclusive = small, poorly fitted or top-dose-only effect, or effect the other way, or a change in a side signal; inactive = no such curve, though single readings can be large or run the other way; the % refers to the signal ratio; also: potency is read from the fitted curve at half-maximal effect; as to activity, negative = inhibition: % is scaled to controls: 0 for no effect and ±100 for the full control effect); conditions: ER-alpha-UAS-bla HEK293, beta-lactamase ratio, antagonist mode; activity, negative = inhibition: at 76.9 µM (top of the series)
UniProt P03372, sequence (P03372 whole entry, looked up): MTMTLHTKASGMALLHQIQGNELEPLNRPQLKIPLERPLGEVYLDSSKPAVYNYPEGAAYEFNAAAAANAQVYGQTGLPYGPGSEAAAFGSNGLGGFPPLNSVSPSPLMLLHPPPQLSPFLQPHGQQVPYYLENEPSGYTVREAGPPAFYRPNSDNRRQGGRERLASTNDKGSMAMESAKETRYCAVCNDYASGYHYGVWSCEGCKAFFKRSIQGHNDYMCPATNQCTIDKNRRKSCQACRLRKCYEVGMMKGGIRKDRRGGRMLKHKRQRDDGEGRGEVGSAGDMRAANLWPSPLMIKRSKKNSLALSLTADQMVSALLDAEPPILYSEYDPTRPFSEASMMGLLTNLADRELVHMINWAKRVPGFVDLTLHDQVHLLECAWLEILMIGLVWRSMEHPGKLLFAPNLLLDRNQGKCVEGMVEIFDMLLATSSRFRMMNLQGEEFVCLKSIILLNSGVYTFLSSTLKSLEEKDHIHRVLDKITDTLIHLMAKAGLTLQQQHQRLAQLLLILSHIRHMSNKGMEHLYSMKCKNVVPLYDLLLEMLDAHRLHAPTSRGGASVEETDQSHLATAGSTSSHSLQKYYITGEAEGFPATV
Outline: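 Antagonist-mode qHTS in ER-alpha-UAS-bla HEK 293 cells: compound titration, 0.5nM estradiol for 18 h, CCF4 fluorescence, Hill-derived IC50.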

[5] = target: Estrogen receptor (Homo sapiens) (UniProt P03372); assay: qHTS assay for small molecule agonists of estrogen receptor alpha signaling (AID 588514; calls by dose curve; also: nearly all actives have a fitted effect of over 70% in size; also: potency is read from the fitted curve at half-maximal effect;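 as to activation: 0% = vehicle only and 100% = reference agonist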); conditions: ER-alpha-UAS-bla HEK293, beta-lactamase ratio, 18 h; activation: at 76.8 µM (top of the series), percent of full estradiol response, vehicle zero unless noted
Outline: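 Efficacy is expressed against 20 nM 17-beta-estradiol (100%) and DMSO basal (0%); EC50 from Hill equation. Assay: beta-lactamase reporter in ER-alpha-UAS-bla HEK 293 cells, 18 h compound incubation, CCF4 detection.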

[6] = target: Peroxisome proliferator-activated receptor gamma (Homo sapiens) (UniProt P37231); assay: qHTS assay for small molecule antagonists of peroxisome proliferator-activated receptor gamma signaling (AID 588537; active = well fitted inhibition curve with a large enough effect in the signal ratio, with a control signal flat, not every such curve was filed as active; inconclusive = small, poorly fitted or top-dose-only effect, or effect the other way, or a change in a side signal; the % refers to the signal ratio; also: potency is read from the fitted curve at half-maximal effect;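 also: reporter cells co-stimulated with 50 nM rosiglitazone agonist during compound treatment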; as to activity, negative = inhibition: % of control where 0% means no effect); conditions: HEK293 PPARg-UAS-bla, beta-lactamase ratio, antagonist mode; activity, negative = inhibition: at 76.8 µM (top of the series)
Outline: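 Compounds are tested as concentration series for inhibition of rosiglitazone-driven (50 nM) reporter expression in GeneBLAzer PPAR-gamma-UAS-bla HEK293 cells. After 16 h at 37 C, CCF4 substrate is added for 2 h at room temperature and blue/green fluorescence is measured.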

[7] = target: Retinoic acid receptor RXR-alpha (Homo sapiens) (UniProt P19793); assay: qHTS assay for small molecule agonists of retinoid X receptor alpha signaling (AID 588544; calls by dose curve; also: potency is read from the fitted curve at half-maximal effect;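 as to activation: 0% = DMSO basal wells and 100% = reference agonist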); conditions: HEK293T RXRa-UAS-bla, beta-lactamase reporter, 18 h; activation: at 76.7 µM (top of the series)
UniProt P19793, sequence (P19793 whole entry, looked up): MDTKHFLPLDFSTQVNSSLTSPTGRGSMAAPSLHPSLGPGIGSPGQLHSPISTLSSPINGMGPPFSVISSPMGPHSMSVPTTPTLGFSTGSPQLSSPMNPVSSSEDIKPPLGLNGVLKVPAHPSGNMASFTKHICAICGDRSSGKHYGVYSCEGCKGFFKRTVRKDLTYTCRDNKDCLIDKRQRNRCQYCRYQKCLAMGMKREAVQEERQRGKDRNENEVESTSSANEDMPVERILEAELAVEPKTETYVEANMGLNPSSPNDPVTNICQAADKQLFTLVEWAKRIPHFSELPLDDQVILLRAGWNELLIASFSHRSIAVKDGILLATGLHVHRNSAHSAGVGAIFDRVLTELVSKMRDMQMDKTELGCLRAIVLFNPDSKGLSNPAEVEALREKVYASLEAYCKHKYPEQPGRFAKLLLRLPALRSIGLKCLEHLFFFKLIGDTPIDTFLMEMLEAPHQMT

[8] = qHTS assay to identify small molecules that stimulate interleukin-8 (IL-8) secretion (AID 651758; active = well fitted activation curve with a large enough effect in the signal ratio; inconclusive = small, poorly fitted or top-dose-only effect, or effect the other way, or a change in a side signal; the % refers to the signal ratio; also: potency is read from the fitted curve at half-maximal effect; as to activation: 0% is about no effect); conditions: HTRF ratio (665/615); activation: at 92.2 µM (top of the series)
Outline: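 Quantitative HTS in THP-1 monocytic cells at 2000 cells per well, with 16 hrs compound incubation at 37 C. IL-8 in the medium was then quantified by HTRF immunoassay, read after 1-3 hrs at room temperature.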

[9] = qHTS assay for small molecule agonists of the antioxidant response element (ARE) signaling pathway measured by Nrf2-dependant transcriptional activity (AID 720636; active = well fitted curve in the direction sought with a large enough effect in the repeat runs; inconclusive = weak or mixed curves; inactive = no such curve, though single readings can be large; an effect the other way counts as inactive or inconclusive; also: potency is read from the fitted curve at half-maximal effect); conditions: ARE-luc HepG2, Nrf2 luciferase reporter, 16 h; series mostly up to 92.4 µM
Outline: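 We exposed ARE-luc HepG2 cells, seeded in assay medium with 1% dialyzed FBS and allowed 6 hr to adhere, to test compounds overnight (16 hr, 37 C) before measuring luciferase with ONE-Glo.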

[10] = qHTS assay for small molecule antagonists of the retinoid-related orphan receptor gamma (ROR-gamma) signaling pathway - cell viability counter screen (AID 720652; active = well fitted curve in the direction sought with a large enough effect in the repeat runs; inconclusive = weak or mixed curves; inactive = no such curve, though single readings can be large; an effect the other way counts as inactive or inconclusive;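 also: compound exposure lasted 16 hr before ATP read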; also: potency is read from the fitted curve at half-maximal effect); conditions: RORgamma reporter cell line viability counter screen; series mostly up to 92.2 µM
Outline: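 Steps: seed CHO cells bearing TET-inducible ROR and ROR response element-luciferase; rest 5 hr at 37 C; add compound, then doxycycline; incubate 16 hr; add CellTiter-Glo and read luminescence as ATP-based viability.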

[11] = target: Thyroid hormone receptor beta (Homo sapiens) (UniProt P10828); assay: qHTS assay for small molecule antagonists of thyroid hormone receptor beta signaling (AID 588547; active = well fitted inhibition curve with a large enough effect in the signal ratio, with a control signal flat, not every such curve was filed as active; inconclusive = small, poorly fitted or top-dose-only effect, or effect the other way, or a change in a side signal; the % refers to the signal ratio; also: potency is read from the fitted curve at half-maximal effect;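 as to activity change % (negative = inhibition): cells stimulated with 0.4 nM T3 agonist during compound exposure; % is scaled to controls: 0 for no effect and ±100 for the full control effect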); conditions: TR-UAS-bla HEK293, beta-lactamase ratio, antagonist mode, 18 h
UniProt P10828, sequence (P10828 whole entry, looked up): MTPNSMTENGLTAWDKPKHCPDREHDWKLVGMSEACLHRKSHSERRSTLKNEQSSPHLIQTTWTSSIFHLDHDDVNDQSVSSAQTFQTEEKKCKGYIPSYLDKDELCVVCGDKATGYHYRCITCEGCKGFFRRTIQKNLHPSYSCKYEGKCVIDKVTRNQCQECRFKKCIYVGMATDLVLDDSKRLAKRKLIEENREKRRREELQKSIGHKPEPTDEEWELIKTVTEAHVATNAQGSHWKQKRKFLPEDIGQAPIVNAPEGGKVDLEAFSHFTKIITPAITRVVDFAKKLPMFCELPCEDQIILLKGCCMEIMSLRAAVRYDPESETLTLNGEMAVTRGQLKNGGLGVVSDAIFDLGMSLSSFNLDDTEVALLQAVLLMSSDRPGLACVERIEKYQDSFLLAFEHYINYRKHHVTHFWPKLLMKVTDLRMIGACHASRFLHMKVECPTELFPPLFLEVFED
Outline: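 TR-UAS-bla GripTite HEK293 cells in 2% charcoal/dextran FBS medium were preincubated 4 h at 37 C, given compound (0.59 nM to 92 uM) plus 0.4 nM T3 (final) for 18 h, then CCF4 for 2 h at RT; Hill fit gave IC50.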

[12] = qHTS assay for small molecule agonists of the antioxidant response element (ARE) signaling pathway (AID 651741; active = well fitted activation curve with a large enough effect in the signal ratio; inconclusive = small, poorly fitted or top-dose-only effect, or effect the other way, or a change in a side signal; the % refers to the signal ratio; also: potency is read from the fitted curve at half-maximal effect); conditions: HepG2 ARE-bla reporter, beta-lactamase FRET ratio, 16 h; activation: at 96 µM (top of the series)
Outline: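 Reporter: beta-lactamase under ARE, stably in HepG2. Exposure: 16 h, 37 C, compounds delivered in DMSO by pin tool after 5 h cell preincubation. Readout: FRET substrate fluorescence after 2 h at RT.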

[13] = MultiTox-Fluor Cytotoxicity Assay - LYMP1-002 - Dead Cells (AID 960); conditions: LYMP1-002 lymphoblastoid cells, dead-cell protease fluorescence; cytotoxicity (dead cells): at 46.1 µM (top of the series); also: potency is read from the fitted curve at half-maximal effect; nearly all actives have a fitted effect of over 60% in size
Outline: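 Cells were plated, rested 5 hr, then treated with compound dilution series for 16 hr at 37 C. After adding substrate reagent and 60 min at room temperature, dead-cell protease fluorescence gave concentration-response curves fitted by the Hill equation.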

[14] = target: Peroxisome proliferator-activated receptor delta (Homo sapiens) (UniProt Q03181); assay: qHTS assay for small molecule antagonists of peroxisome proliferator-activated receptor delta signaling (AID 588535; active = well fitted inhibition curve with a large enough effect in the signal ratio, with a control signal flat, not every such curve was filed as active; inconclusive = small, poorly fitted or top-dose-only effect, or effect the other way, or a change in a side signal; inactive = no such curve, though single readings can be large or run the other way; the % refers to the signal ratio; also: potency is read from the fitted curve at half-maximal effect); conditions: HEK293T PPARd-UAS-bla, beta-lactamase FRET ratio, 18 h; activity change, negative = inhibition: at 76.7 µM (top of the series)
UniProt Q03181, sequence (Q03181 whole entry, looked up): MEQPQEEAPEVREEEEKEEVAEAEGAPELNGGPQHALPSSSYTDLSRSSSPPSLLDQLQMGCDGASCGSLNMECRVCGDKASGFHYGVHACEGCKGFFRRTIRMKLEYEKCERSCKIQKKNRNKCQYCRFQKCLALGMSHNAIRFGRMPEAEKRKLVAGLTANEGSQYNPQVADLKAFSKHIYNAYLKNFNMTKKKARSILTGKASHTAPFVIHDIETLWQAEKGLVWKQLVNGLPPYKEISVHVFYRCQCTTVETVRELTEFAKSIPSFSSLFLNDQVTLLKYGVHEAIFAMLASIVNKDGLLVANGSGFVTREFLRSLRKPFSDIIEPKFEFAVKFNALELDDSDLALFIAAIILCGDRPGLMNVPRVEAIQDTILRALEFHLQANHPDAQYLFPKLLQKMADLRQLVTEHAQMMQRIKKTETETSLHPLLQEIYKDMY
Outline: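 Inhibition of PPAR-delta response element-driven beta-lactamase expression is measured in HEK293T cells exposed to a compound titration series for 18 hrs at 37 C. Half-maximal inhibition comes from Hill equation fitting.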

[15] = target: Thyroid hormone receptor beta (Homo sapiens) (UniProt P10828); assay: qHTS assay for small molecule agonists of thyroid hormone receptor beta signaling (AID 588545; calls by dose curve;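 also: 0% = DMSO only and 100% = 10 nM T3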); conditions: TR-UAS-bla GripTite HEK 293, beta-lactamase ratio, agonist mode, 18 h; activation: at 76.7 µM, percent of T3 response, DMSO as zero
Outline: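 Compounds were tested as agonists in TR-UAS-bla-GripTite HEK 293 cells. After 18 hrs at 37 C, CCF4 substrate was added and fluorescence read after 2 hrs at room temperature.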

[16] = target: Retinoic acid receptor RXR-alpha (Homo sapiens) (UniProt P19793); assay: qHTS assay for small molecule antagonists of retinoid X receptor alpha signaling (AID 588546; active = well fitted inhibition curve with a large enough effect in the signal ratio, with a control signal flat, not every such curve was filed as active; inconclusive = small, poorly fitted or top-dose-only effect, or effect the other way, or a change in a side signal; inactive = no such curve, though single readings can be large or run the other way; the % refers to the signal ratio;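 also: cells stimulated with 9-cis-retinoic acid as agonist; % is scaled to controls: 0 for no effect and ±100 for the full control effect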); conditions: HEK293T RXRa-UAS-bla, beta-lactamase ratio, antagonist mode
Outline: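 Beta-lactamase reporter inhibition, read as CCF4 fluorescence ratio (ex 405, em 460/530 nm) after 2 h at RT. HEK293T UAS-bla cells, 2500/well, were stimulated with 9-cis-RA at 500 or 100 nM final alongside test compound for 18 h at 37 C.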

[17] = Cell Viability - H-4-II-E (AID 543); conditions: H-4-II-E rat hepatoma viability; series mostly up to 92.2 µM;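 also: potency is read from the fitted curve at half-maximal effect; cells exposed to compound for 40 hours; nearly all actives have a fitted effect of over 35% in size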
Outline: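 Cells seeded at 1500 per well and rested 5 hr; compounds added; 40 hr incubation at 37 °C; CellTiter-Glo added, 20 min at room temperature; luminescence read. Hill-equation fits gave AC50.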

[18] = target: Glucocorticoid receptor (Homo sapiens) (UniProt P04150); assay: qHTS assay for small molecule antagonists of glucocorticoid receptor signaling (AID 588533; active = well fitted inhibition curve with a large enough effect in the signal ratio, with a control signal flat, not every such curve was filed as active; inconclusive = small, poorly fitted or top-dose-only effect, or effect the other way, or a change in a side signal; the % refers to the signal ratio;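 also: cells stimulated with 2 nM dexamethasone as agonist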; also: potency is read from the fitted curve at half-maximal effect; as to activity change, negative = inhibition: % is scaled to controls: 0 for no effect and ±100 for the full control effect); conditions: HeLa MMTV-bla, GRE beta-lactamase ratio, antagonist mode, 18 h; activity change, negative = inhibition: at 76.8 µM (top of the series)
[19] = target: Peroxisome proliferator-activated receptor gamma (Homo sapiens) (UniProt P37231); assay: qHTS assay for small molecule agonists of peroxisome proliferator-activated receptor gamma signaling (AID 588536; active = well fitted curve in the direction sought with a large enough effect in the signal ratio, with a control signal flat, not every such curve was filed as active; inconclusive = small, poorly fitted or top-dose-only effect, or effect the other way, or a change in a side signal; inactive = no such curve, though single readings can be large or run the other way; the % refers to the signal ratio;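 also: 0% = DMSO basal wells and 100% = rosiglitazone at 2 µM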); conditions: HEK293 PPARg-UAS-bla, beta-lactamase ratio, 16 h; activation: at 76.7 µM (top of the series), percent of rosiglitazone response, DMSO as zero
Outline: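 Using GeneBLAzer HEK293 cells, response was quantified by CCF4 fluorescence and normalized between basal DMSO (0%) and rosiglitazone 2 uM (100%); curves yielded half-maximal stimulation concentration and efficacy.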
Tags tell the direction and shape of the fitted curve or compound fluorescence and quenching.

Compound: CN(C)c1ccc(N)cc1
- Potency [1]: inconclusive: 79.4 µM [partial curve]
- Potency [2]: inconclusive: 39.8 µM [cytotoxic, partial curve, poor fit]
- Potency [3]: inconclusive: 50.1 µM [cytotoxic, partial curve, poor fit]
- Potency [4]: active: 31.6 µM [inconclusive]
- Potency [5]: inactive
- Potency [6]: inactive
- Potency [7]: inactive
- Potency [8]: inconclusive: 66.8 µM [activator, single point]
- Potency [9]: inconclusive: 11.9 µM [activator, full curve, poor fit]
- Potency [10]: inconclusive: 59.6 µM [cytotoxic, partial curve]

Compound: Nc1cc(Cl)ccc1O
- Potency [4]: inactive
- Potency [6]: inconclusive: 44.7 µM [side channel, rising, single point]
- Potency [7]: inconclusive: 22.4 µM [side channel, rising, partial curve, poor fit]
- Potency [11]: inconclusive: 39.8 µM [side channel, rising, partial curve, poor fit]
- Potency [12]: active: 10.6 µM
- activation [8]: inconclusive: -9.38%
- Potency [9]: active: 21.1 µM
- Potency [10]: inconclusive: 66.8 µM [rising, partial curve, poor fit]

Compound: ClC1=C(Cl)C2(Cl)C3C4CC(C5OC45)C3C1(Cl)C2(Cl)Cl (stereo unspecified)
- Potency [2]: active: 15.8 µM
- Potency [13]: active: 20 µM
- Potency [3]: active: 20 µM
- activation [5]: inconclusive: 20.8%
- Potency [14]: inconclusive: 50.1 µM [side channel, rising, single point]
- Potency [6]: inconclusive: 44.7 µM [inhibitor, partial curve]
- activation [7]: inconclusive: -23.6%
- activation [15]: inactive: -21.3%
- max response [16]: inconclusive: -40.7%
- activity change % (negative = inhibition) [11]: inactive: -28.8%
- Potency [12]: active: 42.2 µM
- Potency [8]: inconclusive: 15 µM [activator, partial curve, poor fit]
- Potency [10]: inconclusive: 37.6 µM [cytotoxic, partial curve]

Compound: Nc1c(Br)cc([N+](=O)[O-])cc1[N+](=O)[O-]
- Potency [17]: inconclusive: 50.1 µM [falling, partial curve]
- max response [16]: inconclusive: 153%
- activity change % (negative = inhibition) [11]: inconclusive: -12.8%
- activation [8]: inconclusive: 28.5%
- Potency [9]: inconclusive: 26.6 µM [activator, partial curve, poor fit]
- Potency [10]: inactive

Compound: CC(C)(c1ccc(OCC2CO2)cc1)c1ccc(OCC2CO2)cc1 (stereo unspecified)
- Potency [1]: inconclusive: 114 µM [single point]
- Potency [17]: inconclusive: 50.1 µM [falling, partial curve]
- Potency [13]: inconclusive: 25.1 µM [cytotoxic, partial curve, poor fit]
- Potency [3]: inconclusive: 39.8 µM [cytotoxic, partial curve, poor fit]
- Potency [4]: active: 31.6 µM [inconclusive]
- Potency [18]: inconclusive: 39.8 µM [inhibitor, partial curve, poor fit] and inconclusive: 50.1 µM [inhibitor, partial curve, poor fit]
- activity change, negative = inhibition [14]: inconclusive: -30.2%
- activation [19]: inconclusive: -15.3% and inconclusive: -27%
- Potency [7]: inconclusive: 44.7 µM [side channel, rising, partial curve, poor fit] and inconclusive: 39.8 µM [side channel, rising, partial curve, poor fit]
- Potency [11]: inconclusive: 50.1 µM [falling, single point]
- activity change % (negative = inhibition) [11]: inconclusive: -120%
- Potency [12]: inconclusive: 84.1 µM [inhibitor, single point] and inconclusive: 27.3 µM [activator, partial curve]
- activation [8]: inconclusive: 24.8%
- Potency [9]: active: 66.8 µM

Compound: C=C(Cl)CCl
- Potency [3]: inactive
- Potency [6]: inconclusive: 50.1 µM [activator, single point]
- Potency [8]: inactive

Compound: O=S1OCC2C(CO1)C1(Cl)C(Cl)=C(Cl)C2(Cl)C1(Cl)Cl (stereo unspecified)
- Potency [1]: inconclusive: 110 µM [single point]
- Potency [2]: inconclusive: 39.8 µM [cytotoxic, partial curve, poor fit]
- Potency [13]: active: 25.1 µM
- Potency [3]: inconclusive: 31.6 µM [cytotoxic, full curve, poor fit]
- Potency [5]: active: 1.41 µM
- activity change, negative = inhibition [18]: inconclusive: -26.6%
- activation [19]: inconclusive: -13.4%
- activity, negative = inhibition [6]: inconclusive: -31.5%
- Potency [7]: inactive
- Potency [12]: active: 66.8 µM
- Potency [8]: active: 66.8 µM
- Potency [10]: inconclusive: 66.8 µM [cytotoxic, single point]
